{"source": "paper PMC12136788", "binders": {"B1": {"name": "chr4:54876292:54876293:-_ENSG00000109220_ENST00000263921|perfect_dup|FALSE|FALSE (ssRNA)", "RNA": "GGGAGUUCUACAGUCCGACGAUCCUAUAAAUAAAGCAAAUGCUAAUCUGGUCGAAAAAUCGGUGUCUUUGGUAAAAAUUCUAUGAGGAUGACAUAUUCCAUCAUGUUGUUCGUUUCACAUUUCCUUUUGCUCAGUCUCCAGUGCAACAGAGGAUUGAGCAUCA"}, "B2": {"name": "120802235_120803636_2864_CDS_ENSG00000107581_ENST00000369144|human|control|control (ssRNA)", "RNA": "GGGAGUUCUACAGUCCGACGAUCUCUUCUAUGAGACCUGUCCUCAUCUCGCCCUUCUCCACGUCUCCACUCCUUCUCUGGCGGGCCUCUUCUCCACUCAGAAUCUGCUUCAGGUCCUUUUCUCCAGGUGCCUUCUGAAUCUCUCAACAGAGGAUUGAGCAUCA"}, "B3": {"name": "chrX:77160730:77160731:+_ENSG00000131174_ENST00000481445|hu_hu|FALSE|FALSE (ssRNA)", "RNA": "GGGAGUUCUACAGUCCGACGAUCUUACUGAUUCCUCCAUUCCUUUGGGGUAACUCUGCCAACAGGGGACAGGUUCCAUUCUAUUCCGACUUGUGUUGCUACAUAUGUCCAUGUAACAAUACAGAAAGUGGCUCCACUAGCUAACAACAGAGGAUUGAGCAUCA"}, "B4": {"name": "chr10:60562040:60562041:-_ENSMUSG00000020097_ENSMUST00000092498|mus_mus|motif|central (ssRNA)", "RNA": "GGGAGUUCUACAGUCCGACGAUCCCUGUGAUGAACCAGCUGGUAACACCUGGGGUCAGAACAGUGCUGAAGACCACUUCCGGAGGAGGGUGAGGAAGAGCCUGGUGGUCUGGCUCUCCCAGCGAGCAAUGCCCAGGCUGAAUACAACAGAGGAUUGAGCAUCA"}, "B5": {"name": "chr1:220276048:220276049:+_ENSG00000067704_ENST00000302637|hu_hu|hu_hu_hu_mus_True|8_18 (ssRNA)", "RNA": "GGGAGUUCUACAGUCCGACGAUCGCAAAUUGCCUGGUUGGCGGGAAUUGUCCAAGGCUGGGUGGUCCAAACUAAAACGCUAACAGGGGAUGAGGCAUCUGUAAGAGACUCCAACUUUGGAGAAGGCUUUAAGAGAGGGAAUCUCAACAGAGGAUUGAGCAUCA"}, "B6": {"name": "chr18:77179482:77179483:+_ENSMUSG00000090000_ENSMUST00000026487|mus_mus|motif|central (ssRNA)", "RNA": "GGGAGUUCUACAGUCCGACGAUCAAGUAUGCUCCAAUCCGGGAGUGCUCCUGCCUCUGAUAAUCUGAUCUACAAGUGCAACGGCAAUUAAAAAAAAAAAAAAAUCAGAUAGAUAGAAACUCUGGUUUUAUUGUCAACUUUACUCAACAGAGGAUUGAGCAUCA"}}, "note": "The list shows a part of the results."}
{"biological_target": "T1, UNK ZnF1-3 (human, UniProt Q9C0B0 31-174)", "T1 sequence": "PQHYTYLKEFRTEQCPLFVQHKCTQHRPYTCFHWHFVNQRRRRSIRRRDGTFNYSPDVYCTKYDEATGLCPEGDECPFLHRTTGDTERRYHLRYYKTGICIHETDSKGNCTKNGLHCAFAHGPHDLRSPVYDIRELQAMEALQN", "experiment": "nsRBNS (natural sequence RNA bind-n-seq); RBNS binding buffer (assumed for nsRBNS): 25 mM Tris pH 7.5, 150 mM KCl, 3 mM MgCl2, 0.01% Triton X-100, 500 ug/ml BSA, 20 U/ml SUPERase-In, 4 C; UNK is unkempt and MSI1 is Musashi-1; names of the RNAs are library labels; protein concentration not given here; high values mean tight binding", "units": {"binding signal": "enrichment R"}}
{"binder": "B1", "binding signal": 1.28}
{"binder": "B2", "binding signal": 0.45}
{"binder": "B3", "binding signal": 0.557}
{"binder": "B4", "binding signal": 1.09}
{"binder": "B5", "binding signal": 2.04}
{"binder": "B6", "binding signal": 2.39}
